# Reference: PubChem BioAssay AID488969 (Vanderbilt High Throughput Screening Facility, 2010)
# Over roughly 110,000 compounds, “z-score” has its median near -0.1; the highest 2% begin near 2. Some of the results follow. The source made the active and inactive calls.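 Rule for the calls: active = z-score in the third read window above 3 or below -3; inactive = the rest.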
# Molecular target: Metabotropic glutamate receptor 8 (Rattus norvegicus) (UniProt P70579)
# Test: rat mGluR8 modulators via GIRK flux, primary screen, cell-based, thallium flux, HTS (AID 488969)
# Details: HEK293 rat mGluR8, GIRK (G protein-gated inwardly rectifying potassium channel) thallium flux, FluoZin2; at 10 µM; stronger effect = higher value; submaximal glutamate (EC20) added with thallium
# UniProt P70579, sequence (P70579 whole entry, looked up): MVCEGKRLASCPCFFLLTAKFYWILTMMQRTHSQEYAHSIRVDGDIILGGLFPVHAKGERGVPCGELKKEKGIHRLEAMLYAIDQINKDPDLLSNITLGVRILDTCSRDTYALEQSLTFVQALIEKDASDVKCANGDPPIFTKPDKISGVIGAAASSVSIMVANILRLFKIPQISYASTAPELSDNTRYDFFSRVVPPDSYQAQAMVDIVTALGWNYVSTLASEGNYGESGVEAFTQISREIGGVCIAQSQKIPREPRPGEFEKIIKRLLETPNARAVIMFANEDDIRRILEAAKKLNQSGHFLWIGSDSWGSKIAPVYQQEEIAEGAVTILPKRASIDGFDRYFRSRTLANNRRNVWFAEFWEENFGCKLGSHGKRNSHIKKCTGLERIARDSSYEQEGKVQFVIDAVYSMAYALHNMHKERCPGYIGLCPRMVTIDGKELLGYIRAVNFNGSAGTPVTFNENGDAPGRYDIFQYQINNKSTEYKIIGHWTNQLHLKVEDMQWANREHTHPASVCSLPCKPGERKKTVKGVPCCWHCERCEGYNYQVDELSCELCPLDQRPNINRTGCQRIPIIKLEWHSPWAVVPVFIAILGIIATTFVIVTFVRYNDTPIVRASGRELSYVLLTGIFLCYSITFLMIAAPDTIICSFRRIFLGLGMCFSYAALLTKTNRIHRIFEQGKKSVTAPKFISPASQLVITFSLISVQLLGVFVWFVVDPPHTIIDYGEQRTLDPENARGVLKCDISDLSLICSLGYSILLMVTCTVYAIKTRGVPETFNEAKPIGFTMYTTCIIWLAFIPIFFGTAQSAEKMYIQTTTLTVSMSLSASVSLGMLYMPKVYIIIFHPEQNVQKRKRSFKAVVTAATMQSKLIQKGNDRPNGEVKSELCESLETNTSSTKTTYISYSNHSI
row,Structure (SMILES),z-score
1,O=C(c1ccc2snnc2c1)N1CCCCC1,0.443
2,COc1ccc(/C=C(/C#N)C(=O)Nc2cc(C)ccc2C)cc1C(=O)O,-0.524
3,Cc1ccc(C(=O)O)cc1NC(=S)NC(=O)c1ccc([N+](=O)[O-])cc1Cl,-0.348
4,Cc1onc(-c2ccccc2)c1C(=O)NNC(=S)NC(=O)c1ccc(F)cc1,0.724
5,CC(C)CN(C(=O)COC(=O)Cn1cnc2ccccc2c1=O)C1CCS(=O)(=O)C1 (centres undefined),-0.415
6,CCc1cccc(C)c1NC(=O)CNCc1ccccc1,-0.195
7,Cc1ccc(F)cc1NC(=O)Cc1nn(C)c(=O)c2ccccc12,-0.0938
8,COc1ccc(CCNC(=O)C2CCN(S(=O)(=O)c3ccc(Cl)cc3)CC2)cc1OC,-0.192
9,O=C(Nc1nnc(SCc2ccccc2)s1)c1cccc([N+](=O)[O-])c1,0.0193
10,CSCCC(NC(=O)c1ccc([N+](=O)[O-])cc1Cl)C(=O)OCC(=O)NC1CCCC(C)C1C (centres undefined),-0.358
11,COC(=O)c1ccc(-n2c(C)cc(C(=O)COC(=O)CC3Sc4ccccc4NC3=O)c2C)cc1 (centres undefined),-0.277
12,CCOC(=O)N1CCN(c2cc3nccnc3cc2F)CC1,-0.142
13,COC(=O)CN(C(=S)Nc1ccc(F)cc1)C1CC(=O)N(c2ccccc2)C1=O (centres undefined),0.011
14,O=C1N=C(N2CCCC2)S/C1=C\c1cn[nH]c1-c1ccccc1,-0.0679
15,Cc1cc(N2CCOCC2)ccc1/C=C1\SC(=O)N(C(C)C)C1=O,-0.355
16,C=CCn1c(N2CCCCCC2)nc2c1c(=O)[nH]c(=O)n2C,0.514
17,Cc1cc(C)cc(N=c2c([N+](=O)[O-])nn(-c3cccc(Cl)c3)n2O)c1,0.232
18,O=C(Nc1ccc(Cl)cc1C(=O)NCC1CCCO1)c1ccco1 (centres undefined),-0.386
19,O=C1CSC(c2cn(-c3ccccc3)nc2-c2cc3ccccc3oc2=O)N1Cc1ccccc1 (centres undefined),0.611
20,CCOC(=O)/C(=C\C=C1/Sc2ccccc2N1CC)C(C)=O,-0.944
21,CCn1c(SCC(=O)Nc2cc(C(C)(C)C)nn2-c2ccccc2)nnc1-c1cccs1,-0.473
22,O=C(NCCc1ccc(Cl)cc1)c1ncn[nH]1,-1.43
23,CN1CCc2c(sc3c2C(=O)NC(c2ccco2)N3)C1 (centres undefined),0.267
24,CCOc1ccc(N2C(=O)CC(N3CCN(c4ccc(C(=O)c5ccncc5)cc4)CC3)C2=O)cc1 (centres undefined),0.227
25,CC1CCCC(C)N1C(=O)CSc1nc2ccccc2s1 (centres undefined),-0.0391
26,COc1ccc(C(=O)NCCSC2CCCCC2)cc1,-0.16
27,O=C(CSCc1c(Cl)cccc1Cl)Nc1nccs1,0.0355

row,Structure (SMILES),z-score
1,O=S1(=O)CCN2C=C(Br)C=C(Br)C2=N1,-1.29
2,CC(C)(C)C(=O)OCC1OC(n2cnc(C(N)=O)n2)C(O)C1O (centres undefined),0.2
3,CCN(CC)c1ccc(/C=C(\C#N)c2nc(-c3cccs3)c(NC(C)=O)s2)cc1,-0.109
4,CCOc1ccc(C(C)=O)cc1CC(C(N)=O)C(N)=O,0.287
5,CCCCC(=O)Nc1ccc(C(=O)Nc2ccc(OC)cc2[N+](=O)[O-])cc1,-0.267
6,O=C(Nc1cccc(Cl)c1)c1ccc(-n2cncn2)c([N+](=O)[O-])c1,-0.167
7,Cn1c(=O)c2c(nc(SCC(=O)NCc3ccc4c(c3)OCO4)n2Cc2ccccc2)n(C)c1=O,-0.437
8,CCOc1ccc(NC(=O)CCSc2ccc3ccccc3n2)cc1,-0.248
9,CCOc1ccc(NS(=O)(=O)c2ccc(OCC(=O)NCCCOC)cc2)cc1,-0.369
10,CCOC(=O)/C=c1\s/c(=C\c2ccc(C)cc2)c(=O)n1CC(=O)NCc1ccco1,0.0354
11,Cc1ccc2nc(Nc3nc(-c4ccccc4)cc(=O)[nH]3)nc(C)c2c1,-0.448
12,Clc1ccccc1-c1nn2c(COc3ccccc3)nnc2s1,active: -3.35
13,COc1ccc(C2CC(c3ccccc3)Nc3nc(N)nn32)cc1 (centres undefined),-0.316
14,CC1CCCC(NC(=O)CN2CCN(Cc3ccc(Cl)cc3)C2=O)C1C (centres undefined),0.38
15,COc1cccc(CNC(=O)C(c2ccc(Cl)cc2)C(C)C)c1 (centres undefined),-0.36
16,Nc1c(Cl)ncnc1N/N=C/c1ccccn1,-0.00044
17,CCCC(=O)NC(c1ccccc1Cl)c1c(O)ccc2ccccc12 (centres undefined),0.148
18,COc1ccccc1NC(=O)/C=C/C(N)=O,0.11
19,CCCCNC(=O)C(CC)Sc1nc2sc(C(=O)OC)c(C)c2c(=O)n1N (centres undefined),-0.308
20,Cc1ccc(/S(C)=N/S(=O)(=O)c2ccc(C)cc2)cc1 (centres undefined),0.304
21,Cc1cc(C(=O)O)c(CSc2ncn[nH]2)o1,-0.141
22,COCc1nnc(NC(=O)CCCOc2ccccc2OC)s1,0.141
23,CCC1Oc2ccccc2N(CC(=O)NCCCN2CCOCC2)C1=O (centres undefined),0.42
24,COc1ccc(NC(=O)C2CCCN2C(=O)NCc2ccccc2)c(OC)c1 (centres undefined),0.928
25,CCOC(=O)C1C(=O)Nc2nc3ccccc3n2C1C(C)C (centres undefined),-0.438
26,COc1ccc(NC(=O)/C=C/c2cc(Br)ccc2OC)cc1,-0.202
27,O=C1N/C(=N/N=C/c2ccccc2)SC1(c1ccccc1)c1ccccc1,-0.186
